Test results published in the supplement of paper PMC12217912.
This is one part of the list. Sequences were assembled here from the parent chain. Inactive controls read about 0.05.

B1: TEV protease; numbered along this chain (parent)
chain: MGESLFKGPRDYNPISSSICHLTNESDGHTTSLYGIGFGPFIITNKHLFRRNNGTLVVQSLHGVFKVKDTTTLQQHLVDGRDMIIIRMPKDFPPFPQKLKFREPQREERICLVTTNFQTKSMSSMVSDTSCTFPSGDGIFWKHWIQTKDGQCGSPLVSTRDGFIVGIHSASNFTNTNNYFTSVPKNFMELLTNQEAQQWVSGWRLNADSVLWGGHKVFMVKPEEPFQPVKEATQL

Variants of: B1
Assay: raw area under fraction-flipped curve 0-4 h after induction (AUC4h, not background-subtracted), DNA-recorder readout of cleavage of the substrate (dimensionless); higher = more cleavage of the substrate by the protease variant
Details: temperature: 34 °C; time window: 0-4 h after rhamnose induction
Description: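 In vivo DNA recorder in E. coli TOP10(DE3) ΔrhaA at 34 °C. Each TEVp single-site mutant (parent TEVp 0) is paired with a single-site variant of the 7-mer TEVs (canonical ENLYFQ|S). The substrate sits between flexible linkers in a Bxb1-sfGFP-TEVs-SsrA fusion, so cleavage stabilises Bxb1 and speeds flipping of a recombination array, read by NGS. The value is the raw area under the fraction-flipped curve over 0-4 h after rhamnose induction (AUC4h), with ≥20 reads per time point. It is not background-subtracted; inactive controls average about 0.047.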
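Also: Bxb1 expression induced with 0.2% (w/v) L-rhamnose at OD600 near 0.5, cultures sampled hourly, flipped fraction per protease–substrate barcode pair counted by paired-end Illumina sequencing.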

Variant | area with substrate ANLYFQS | area with substrate CNLYFQS | area with substrate HNLYFQS | area with substrate INLYFQS | area with substrate LNLYFQS | area with substrate MNLYFQS | area with substrate NNLYFQS | area with substrate PNLYFQS | area with substrate SNLYFQS | area with substrate TNLYFQS | area with substrate VNLYFQS | area with substrate YNLYFQS | area with substrate FNLYFQS | area with substrate GNLYFQS | area with substrate WNLYFQS | area with substrate KNLYFQS | area with substrate QNLYFQS | area with substrate DNLYFQS | area with substrate RNLYFQS
H215E | 0.0674 | 0.0502 | 0.0667 | 0.058 | 0.06 | 0.0527 | 0.0661 | 0.052 | 0.0642 | 0.0675 | 0.0743 | 0.0656 | – | – | – | – | – | – | –
M188Y | 0.062 | 0.0436 | 0.0638 | 0.056 | 0.0644 | 0.0556 | 0.0673 | 0.0648 | – | 0.0591 | – | – | 0.063 | 0.0595 | 0.0598 | – | – | – | –
S17L | 0.102 | 0.101 | 0.0807 | 0.0675 | 0.0586 | 0.064 | 0.0569 | 0.0696 | 0.0664 | 0.0656 | 0.0702 | 0.0601 | 0.0651 | 0.0768 | 0.06 | 0.0747 | 0.0686 | – | –
S17K | 0.057 | – | 0.065 | – | 0.0609 | 0.0768 | 0.0583 | 0.0799 | 0.0694 | 0.0599 | 0.0742 | 0.0681 | 0.068 | 0.084 | 0.0578 | 0.0656 | 0.0827 | 0.106 | –
I43C | 0.0677 | 0.0614 | 0.0541 | 0.081 | 0.0715 | 0.0583 | 0.0593 | 0.0658 | 0.076 | 0.06 | – | 0.0561 | 0.0653 | 0.0451 | 0.0624 | 0.0555 | 0.0686 | – | 0.0489
Y12D | 0.0212 | 0.0521 | 0.0659 | – | 0.0639 | 0.07 | 0.0621 | 0.0633 | 0.0731 | 0.0669 | 0.0639 | 0.0478 | 0.0551 | – | 0.0542 | 0.071 | 0.0677 | – | –
S169R | 0.0666 | – | 0.055 | – | 0.0551 | – | – | 0.0726 | 0.0646 | 0.052 | 0.0647 | 0.0621 | 0.0507 | 0.069 | 0.0583 | 0.0618 | 0.0089 | 0.0466 | –
G80R | 0.0601 | – | – | – | – | – | 0.0588 | – | – | 0.0779 | – | 0.0592 | – | – | 0.0716 | – | – | 0.0891 | –
N116E | 0.0635 | – | 0.0619 | 0.0439 | 0.0675 | 0.0649 | 0.0585 | 0.0611 | 0.0759 | 0.0651 | 0.0736 | 0.0676 | 0.0668 | 0.0712 | 0.0594 | 0.0284 | 0.0651 | 0.0837 | 0.079
F49C | 0.0359 | 0.0559 | 0.0482 | 0.0456 | 0.066 | 0.0609 | – | 0.0745 | 0.0491 | 0.0581 | – | 0.054 | – | 0.0781 | 0.0307 | 0.0493 | – | – | –
R81E | 0.0534 | – | 0.056 | – | – | 0.0737 | – | 0.0529 | – | 0.0509 | – | 0.0545 | 0.0526 | – | 0.0528 | 0.0531 | 0.0541 | 0.0484 | –
Y34F | 0.0493 | 0.0846 | 0.0659 | 0.06 | – | 0.0602 | – | 0.0584 | – | – | – | 0.0617 | – | – | 0.0464 | – | – | – | –
G213M | 0.0382 | 0.0532 | 0.0638 | 0.056 | – | 0.052 | 0.0569 | 0.0545 | – | 0.0489 | 0.0435 | 0.0452 | 0.0459 | 0.0633 | 0.0503 | – | 0.0428 | – | –
F38L | 0.0595 | 0.0611 | 0.0725 | 0.0644 | 0.0511 | 0.0618 | 0.0613 | 0.056 | 0.063 | 0.052 | 0.076 | 0.0562 | 0.0691 | 0.0666 | 0.0565 | 0.0631 | – | – | 0.0407
I15A | 0.0762 | 0.0614 | – | 0.0547 | 0.0558 | – | 0.0861 | 0.0696 | 0.0611 | 0.0501 | – | 0.0441 | 0.0605 | – | 0.057 | 0.0744 | – | – | 0.0472
V165F | 0.0538 | 0.0271 | 0.0497 | 0.0326 | – | 0.0522 | 0.0482 | – | 0.0658 | 0.0445 | – | 0.0457 | – | – | 0.0407 | 0.0563 | 0.0553 | – | –
S26G | 0.0744 | 0.0601 | 0.062 | 0.0707 | – | – | 0.059 | 0.0579 | 0.0629 | – | – | – | – | – | 0.0704 | – | – | – | –
W141Q | 0.0525 | – | 0.0378 | – | 0.0567 | – | – | – | 0.0419 | 0.0599 | – | 0.0518 | 0.0499 | – | 0.0531 | 0.0553 | – | 0.0635 | 0.0645
R102W | 0.0444 | 0.0432 | 0.0492 | – | 0.0252 | – | 0.0483 | – | 0.0529 | 0.0533 | – | – | – | 0.0551 | 0.046 | 0.0525 | 0.0394 | – | –
R102D | 0.0088 | 0.0475 | 0.0405 | 0.0493 | 0.0423 | – | – | – | – | 0.0381 | 0.0584 | 0.0521 | – | – | 0.049 | 0.0454 | – | – | –
L156D | 0.0383 | 0.0453 | 0.0475 | 0.0568 | 0.0586 | 0.0523 | 0.0561 | – | – | 0.0533 | 0.0576 | 0.0391 | – | 0.0455 | 0.0543 | 0.0571 | – | – | –
I145Y | 0.0621 | 0.0585 | 0.063 | 0.0556 | – | 0.0758 | 0.0449 | 0.0556 | 0.0732 | 0.0621 | 0.0626 | 0.0658 | 0.0714 | 0.067 | 0.0647 | – | 0.0682 | – | 0.0653
S121V | 0.0456 | 0.0736 | 0.0371 | 0.0579 | 0.064 | – | 0.0621 | 0.0755 | 0.0703 | 0.0796 | – | 0.0608 | 0.0616 | 0.0333 | – | 0.0762 | – | – | –
C131S | 0.0604 | 0.0423 | – | – | – | – | – | – | – | – | – | – | 0.0634 | – | 0.0484 | – | – | – | –
D149N | 0.0487 | – | 0.0901 | 0.0855 | 0.0602 | – | 0.0582 | 0.0716 | – | 0.0682 | 0.0593 | 0.0535 | 0.0584 | 0.0935 | 0.0558 | – | 0.0556 | 0.0612 | –
L211V | 0.0586 | – | 0.0346 | 0.0631 | – | 0.0833 | – | – | 0.056 | 0.0819 | – | 0.0704 | – | 0.0823 | 0.0696 | – | – | 0.0937 | –
L211C | 0.0622 | – | 0.0492 | – | 0.0641 | – | 0.0542 | 0.0691 | 0.0708 | 0.0699 | 0.0646 | 0.0541 | – | – | 0.0731 | – | – | 0.058 | –
K185E | 0.0744 | 0.0816 | 0.0612 | – | 0.0435 | – | – | – | 0.0562 | 0.0586 | – | 0.0681 | – | 0.0664 | 0.0744 | – | 0.0802 | – | –
